Data on eight compounds can be found in PMC6151383 (Molecules : A Journal of Synthetic Chemistry and Natural …, 2017).

Converted amounts (≈) assume the structure as drawn. Where two headings read alike, the source gives them in different places. A value given as a limit tells only on which side of the number the result lay.

The subject of data set [1] is Candida krusei E28. Briefly: Antifungal microdilution broth MIC, C. krusei. It counts as cell-based. The following applies: Pichia kudriavzevii, 24 h incubation, read-out: MIC CK 24 h. In general terms: In broth dilution the organism is exposed to a series of concentrations in liquid medium.
The subject of data set [2] is Trichosporon asahii 1188. Kind of data set: Antifungal microdilution broth MIC, T. asahii. It is filed as cell-based. The following applies: 24 h incubation, read-out: MIC TA 24 h.
Data set [3] relates to Staphylococcus aureus CCM 4516/08. Briefly: Antibacterial microdilution broth MIC, S. aureus. Conditions: CCM4516, 24 h incubation, read-out: MIC SA 24 h. It is filed as cell-based.
Data set [4] has as its system Escherichia coli CCM 4517. Briefly: Antibacterial microdilution broth MIC, E. coli. It is filed as cell-based. The following applies: 24 h incubation, read-out: MIC EC 24 h.
Data set [5] has as its system Enterococcus faecalis J 14365/08. Kind of data set: Antibacterial microdilution broth MIC, E. faecalis. It counts as cell-based. Conditions: 24 h incubation, read-out: MIC EF 24 h.
For data set [6], the system named is methicillin-resistant Staphylococcus aureus H 5996/08 (MRSA). Briefly: Antibacterial microdilution broth MIC, MRSA. The following applies: for MIC: Staphylococcus aureus; for MIC / SI for Staphylococci (MRSA): MRSA; for SI for Staphylococci (MRSA): SI = IC50 (HepG2)/MIC.
For data set [7], the system named is Lichtheimia corymbifera 272. Kind of data set: Antifungal microdilution broth MIC, L. corymbifera. The following applies: 24 h incubation, read-out: MIC LC 24 h. It is filed as cell-based.
Data set [8] relates to Candida albicans ATCC 44859. Kind of data set: Antifungal microdilution broth MIC, C. albicans. It counts as cell-based. Conditions: ATCC44859, 24 h incubation, read-out: MIC CA 24 h.
Data set [9] concerns Candida glabrata 20/I. Kind of data set: Antifungal microdilution broth MIC, C. glabrata. The following applies: Nakaseomyces glabratus, 24 h incubation, read-out: MIC CG 24 h. It is filed as cell-based.
In data set [10] the test system is Aspergillus fumigatus 231. Briefly: Antifungal microdilution broth MIC, A. fumigatus. It is filed as cell-based. Conditions: 24 h incubation, read-out: MIC AF 24 h.
In data set [11] the test system is Pseudomonas aeruginosa CCM 1961. Kind of data set: Antibacterial microdilution broth MIC, P. aeruginosa. It counts as cell-based. The following applies: 24 h incubation, read-out: MIC PA 24 h.
Data set [12] relates to Staphylococcus epidermidis H 6966/08. Kind of data set: Antibacterial microdilution broth MIC, S. epidermidis. It counts as cell-based. The following applies: 24 h incubation, read-out: MIC SE 24 h.
Data set [13] has as its system Candida tropicalis 156. Briefly: Antifungal microdilution broth MIC, C. tropicalis. It counts as cell-based. The following applies: 24 h incubation, read-out: MIC CT 24 h.
For data set [14], the system named is HepG2 cells. Briefly: Cytotoxicity, CellTiter 96 assay. It counts as cell-based, human. The following applies: HepG2, 24 h incubation. As to the method: (§1) The cytotoxicity of the investigated compounds 1 and 2 was measured using the standard hepatic cell line HepG2 (Table 5). The used CellTiter 96 assay is based on the reduction of tetrazolium dye in living cells to formazan. This reduction is related to availability of NADH or NADPH. The parameter IC50, i.e., the concentration that reduces the viability of the cells to 50% of the maximal viability, was used as a measure of cytotoxicity. It was not possible to determine the exact IC50 values of two derivatives (compounds 2a, 2b) due to their limited solubility in the cell culture medium used in this experiment.
(§2) All of the compounds were tested to determine their cytotoxicity in the human hepatocellular liver carcinoma cell line HepG2 (passages 5–6 and 3–8; ECACC, Salisbury, UK) using a standard colorimetric method that involves measuring the reduction of a tetrazolium salt (CellTiter(R) 96 AQueous One Solution Cell Proliferation Assay; Promega, Fichtburg, MA, USA).
(§3) The cells were cultured in Minimum Essentials Eagle Medium (Sigma-Aldrich) supplemented with 10% foetal bovine serum (PAA), 1% L-glutamine solution (Sigma-Aldrich) and a non-essential amino acid solution (Sigma-Aldrich) in a humidified atmosphere containing 5% CO2 at 37 °C. The investigated compounds were dissolved in DMSO and a small volume was added to the cell culture. The tested compounds were prepared in triplicates at concentrations ranging from 1 to 1500 µM. Simultaneously, the following types of controls were also included in triplicates: determination of 100% viability and 0% viability (the cells were treated with 10% DMSO), no cell control and vehiculum controls. […] After 2 h incubation at 37 °C, absorbance of samples was recorded at 490 nm (Infinita M200, TECAN, Grödig, Austria). A standard toxicological parameter IC50 was calculated by nonlinear regression from a semilogarithmic plot of incubation concentration versus percentage of absorbance relative to untreated controls using GraphPad Prism 6 software (GraphPad Software Inc., San Diego, CA, USA). IC50 is the inhibitory concentration that reduces the cell viability to 50% of the maximal (control) viability.

A short description of data set [15]: Cytotoxicity, CellTiter 96 assay. It is filed as cell-based, human. Conditions: human, HepG2 cells, HepG2, 24 h incubation. As to the method:
as §1, §2, §3

Data set [16] has as its system Klebsiella pneumoniae D 11750/08. Kind of data set: Antibacterial microdilution broth MIC, K. pneumoniae. Conditions: 24 h incubation.
For data set [17], the system named is ESBL-positive Klebsiella pneumoniae J 14368/08. Conditions: 24 h incubation.
[18] abbreviates: Enterococcus faecalis, J14365/08.
Setting [19] is: Pseudomonas aeruginosa, CCM1961.
Where [20] appears, read: Staphylococcus epidermidis, H6966/08.

What is called MIC is the least concentration at which growth counts as inhibited. In general, IC50 refers to the concentration needed to halve the response being measured. Read a low IC50 as inhibition by little substance. Regarding `O=S(=O)(Nc1ncccn1)c1ccc(N=Cc2ccccc2O)cc1` [Compound 2a, 4-[(2-Hydroxybenzylidene)amino]-N-(pyrimidin-2-yl)benzenesulfonamide], the MIC in data set [1] is above 500 µM; in data set [2], above 500 µM; in data set [3], 500 µM (≈ 177 µg/mL); in [4] (Escherichia coli, CCM4517), above 500 µM; in data set [5] (setting [18]) it was 31.2 µM (≈ 11.1 µg/mL); in [6] (48 h, read-out: MIC MRSA 48 h), 250 µM (≈ 88.6 µg/mL). The MIC was above 500 µM in [7]; above 500 µM in data set [8]; above 500 µM in data set [9]; above 500 µM in data set [10]; 500 µM (≈ 177 µg/mL) in [11] (setting [19]); 62.5 µM (≈ 22.1 µg/mL) in data set [12] (setting [20]). Besides, the MIC in [13] is above 500 µM. This compound returned an IC50 in [14] above 500 µM. The compound also registered a concentration for half-maximal inhibition (IC50) at 24 h in data set [15] above 250 µM.
As to `O=S(=O)(Nc1ncccn1)c1ccc(N=Cc2cc(F)ccc2O)cc1` [Compound 2b, 4-[(5-Fluoro-2-hydroxybenzylidene)amino]-N-(pyrimidin-2-yl)benzenesulfonamide], the MIC is above 250 µM in data set [1]; above 250 µM in [2]; above 250 µM in [3]; above 250 µM in [4] (Escherichia coli, CCM4517); above 250 µM in data set [5] (setting [18]); above 250 µM in data set [6] (48 h, read-out: MIC MRSA 48 h). Moreover, the MIC in [7], in data set [8], in data set [9], in data set [10], in data set [11] (setting [19]) and in data set [12] (setting [20]) was above 250 µM each time. For the same compound, in data set [13], the MIC was above 250 µM. In addition, in data set [6], the “SI for Staphylococci (MRSA)” value was “inactive”. This compound also returned an IC50 at 24 h in data set [15] above 250 µM.
On to `O=[N+]([O-])c1ccc(O)c(C=Nc2ccc(S(=O)(=O)Nc3ncccn3)cc2)c1` [Compound 2f, 4-[(2-Hydroxy-5-nitrobenzylidene)amino]-N-(pyrimidin-2-yl)benzenesulfonamide], for which the MIC in [1] was above 500 µM; in [2], above 500 µM; in [3], 250 µM (≈ 99.8 µg/mL); in [4] (Escherichia coli, CCM4517), 250 µM (≈ 99.8 µg/mL); in [5] (setting [18]), 500 µM (≈ 200 µg/mL); in [6] (48 h, read-out: MIC MRSA 48 h), 250 µM (≈ 99.8 µg/mL). The MIC in data set [7] was 500 µM (≈ 200 µg/mL); in [8], 500 µM (≈ 200 µg/mL); in data set [9], 250 µM (≈ 99.8 µg/mL); in [10], above 500 µM; in [11] (setting [19]) it was 500 µM (≈ 200 µg/mL); in data set [12] (setting [20]), 500 µM (≈ 200 µg/mL). Also, the MIC in data set [13] is above 500 µM. Also, the IC50 at 24 h in data set [15] came to 140 µM.
On to `CC(C)(C)c1ccc(O)c(C=Nc2ccc(S(=O)(=O)Nc3ncccn3)cc2)c1` [Compound 2j, 4-{[5-(Tert-butyl)-2-hydroxybenzylidene]amino}-N-(pyrimidin-2-yl)benzenesulfonamide], for which, in [6], the “SI for Staphylococci (MRSA)” value is “inactive”. In addition, the MIC in [6] (24 h, read-out: MIC MRSA 24 h) is above 125 µM; in [6] (48 h, read-out: MIC MRSA 48 h) it was above 125 µM. Also, the “MIC KP 24 h” value in data set [16] is recorded as above 125 µM. Also, the “MIC KP-E 24 h” value in data set [17] is given as above 125 µM.
As to `O=S(=O)(Nc1ncccn1)c1ccc(N=Cc2c(O)cccc2Cl)cc1` [Compound 2k, 4-[(2-Chloro-6-hydroxybenzylidene)amino]-N-(pyrimidin-2-yl)benzenesulfonamide], the MIC in data set [1] is above 250 µM; in [2] it was above 250 µM; in [3], above 250 µM; in data set [4] (Escherichia coli, CCM4517), above 250 µM; in [5] (setting [18]), above 250 µM; in data set [6] (48 h, read-out: MIC MRSA 48 h), above 250 µM. Further, the MIC in data set [7], in [8], in data set [9], in data set [10], in data set [11] (setting [19]) and in data set [12] (setting [20]) was above 250 µM each time. Also, in [13], the MIC is above 250 µM. Also, in data set [6], the “SI for Staphylococci (MRSA)” value was “inactive”. Moreover, the IC50 at 24 h in data set [15] amounted to 102 µM.
As for `O=S(=O)(Nc1ncccn1)c1ccc(N=Cc2cc(I)cc(I)c2O)cc1` [Compound 2p, 4-[(2-Hydroxy-3,5-diiodobenzylidene)amino]-N-(pyrimidin-2-yl)benzenesulfonamide], the MIC in data set [1] was 7.81 µM (≈ 4.73 µg/mL); in data set [2], 3.9 µM (≈ 2.36 µg/mL); in [3] it was 7.81 µM (≈ 4.73 µg/mL); in data set [6] (48 h, read-out: MIC MRSA 48 h), 7.81 µM (≈ 4.73 µg/mL); in data set [8], 3.9 µM (≈ 2.36 µg/mL); in data set [9] it was 3.9 µM (≈ 2.36 µg/mL). Moreover, the MIC in data set [11] (setting [19]) amounted to 500 µM (≈ 303 µg/mL); in [12] (setting [20]) it was 7.81 µM (≈ 4.73 µg/mL); in [13], 7.81 µM (≈ 4.73 µg/mL). Besides, the “MIC KP 24 h” value in data set [16] stood at 125 µM (≈ 75.8 µg/mL). In addition, in data set [17], the “MIC KP-E 24 h” value is reported as 125 µM (≈ 75.8 µg/mL). The IC50 at 24 h in [15] stood at 38 µM.
For `O=[N+]([O-])c1ccc(C=Nc2ccc(S(=O)(=O)Nc3ncccn3)cc2)o1` [Compound 2q, 4-{[(5-Nitrofuran-2-yl)methylene]amino}-N-(pyrimidin-2-yl)benzenesulfonamide], the MIC is 250 µM (≈ 93.3 µg/mL) in data set [1]; 500 µM (≈ 187 µg/mL) in data set [2]; above 500 µM in [4] (Escherichia coli, CCM4517); above 500 µM in [5] (setting [18]); 125 µM (≈ 46.7 µg/mL) in [6] (24 h, read-out: MIC MRSA 24 h); 125 µM (≈ 46.7 µg/mL) in data set [6] (48 h, read-out: MIC MRSA 48 h). The MIC was above 500 µM in data set [7]; 250 µM (≈ 93.3 µg/mL) in [8]; 250 µM (≈ 93.3 µg/mL) in data set [9]; 500 µM (≈ 187 µg/mL) in [10]; 250 µM (≈ 93.3 µg/mL) in [11] (setting [19]); 31.2 µM (≈ 11.7 µg/mL) in [12] (setting [20]). Also, the MIC in [13] was 250 µM (≈ 93.3 µg/mL). Half-maximal inhibition in data set [14] (IC50) required 16.3 µM. The same compound showed an IC50 at 24 h in data set [15] of 16 µM.
Turning to Bacitracin [reference compound], the MIC in data set [4] is recorded as above 500 µM; in data set [5], 15.62 µM; in data set [11] it was above 500 µM; in data set [12], 15.62 µM. Besides, the “MIC MRSA 24 h” value in data set [6] (24 h incubation) amounted to 15.62 µM. In addition, the “MIC MRSA 48 h” value in data set [6] (48 h incubation) stood at 15.62 µM. Besides, in data set [16], the “MIC KP 24 h” value is on record as above 500 µM. In addition, the “MIC KP-E 24 h” value in [17] is on record as above 500 µM.
